Data published in the supplement of paper PMC8948288.
The sequences are guide strands of siRNAs; only the seed at positions 2 to 7 varies.

How the values were obtained:
[1] = tested on: H4; assay: cell viability relative to siNT1 (ATP content); H4 human neuroglioma and GL261 mouse glioma; higher = less toxic; settings: siRNA concentration 10 nM; 96 h; human
[2] = tested on: GL261; assay: as above; settings: siRNA concentration 25 nM; 96 h; mouse
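Further: cells reverse transfected with siRNA duplexes via lipid reagent, ATP read by luminescence, triplicate wells, values scaled to mean viability with non-targeting control siNT1.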

## UUUGGAUACAUGUAAACCA
[1]
  cell viability: 96.3%
[2]
  cell viability: 42.2%

## UUUGGCAACAUGUAAACCA
[1]
  cell viability: 79%
[2]
  cell viability: 22.6%

## UUUGGCCACAUGUAAACCA
[1]
  cell viability: 45.8%
[2]
  cell viability: 35.5%

## UUUGGCGACAUGUAAACCA
[1]
  cell viability: 98.5%
[2]
  cell viability: 50.4%

## UUUGGCUACAUGUAAACCA
[1]
  cell viability: 74.7%
[2]
  cell viability: 17.3%

## UUUGGGAACAUGUAAACCA
[1]
  cell viability: 90.5%
[2]
  cell viability: 50.2%

## UUUGGGCACAUGUAAACCA
[1]
  cell viability: 59.3%
[2]
  cell viability: 21.6%

## UUUGGGGACAUGUAAACCA
[1]
  cell viability: 64.3%
[2]
  cell viability: 52.4%

## UUUGGGUACAUGUAAACCA
[1]
  cell viability: 68.4%
[2]
  cell viability: 51.7%

## UUUGGUAACAUGUAAACCA
[1]
  cell viability: 90.5%
[2]
  cell viability: 69.6%

## UUUGGUCACAUGUAAACCA
[1]
  cell viability: 73.3%
[2]
  cell viability: 37.2%

## UUUGGUGACAUGUAAACCA
[1]
  cell viability: 86.3%
[2]
  cell viability: 45.3%

## UUUGGUUACAUGUAAACCA
[1]
  cell viability: 94.2%
[2]
  cell viability: 60.8%

## UUUGUAAACAUGUAAACCA
[1]
  cell viability: 110%
[2]
  cell viability: 67.8%

## UUUGUACACAUGUAAACCA
[1]
  cell viability: 88.9%
[2]
  cell viability: 61.2%

## UUUGUAGACAUGUAAACCA
[1]
  cell viability: 80.6%
[2]
  cell viability: 52.6%

## UUUGUAUACAUGUAAACCA
[1]
  cell viability: 85.9%
[2]
  cell viability: 46.7%

## UUUGUCAACAUGUAAACCA
[1]
  cell viability: 66.8%
[2]
  cell viability: 73.3%

## UUUGUCCACAUGUAAACCA
[1]
  cell viability: 70.3%
[2]
  cell viability: 34.2%

## UUUGUCGACAUGUAAACCA
[1]
  cell viability: 108%
[2]
  cell viability: 68.7%

## UUUGUCUACAUGUAAACCA
[1]
  cell viability: 70.9%
[2]
  cell viability: 63.1%

## UUUGUGAACAUGUAAACCA
[1]
  cell viability: 95.1%
[2]
  cell viability: 35.9%

## UUUGUGCACAUGUAAACCA
[1]
  cell viability: 81.6%
[2]
  cell viability: 21.9%

## UUUGUGGACAUGUAAACCA
[1]
  cell viability: 70.3%
[2]
  cell viability: 38.6%

## UUUGUGUACAUGUAAACCA
[1]
  cell viability: 92%
[2]
  cell viability: 25%

## UUUGUUAACAUGUAAACCA
[1]
  cell viability: 97.4%
[2]
  cell viability: 46.1%

## UUUGUUCACAUGUAAACCA
[1]
  cell viability: 60.1%
[2]
  cell viability: 18.3%

## UUUGUUGACAUGUAAACCA
[1]
  cell viability: 90.3%
[2]
  cell viability: 54%

## UUUGUUUACAUGUAAACCA
[1]
  cell viability: 76.7%
[2]
  cell viability: 40.1%

## UUUUAAAACAUGUAAACCA
[1]
  cell viability: 77.4%
[2]
  cell viability: 61.7%

## UUUUAACACAUGUAAACCA
[1]
  cell viability: 86.6%
[2]
  cell viability: 47.4%

## UUUUAAGACAUGUAAACCA
[1]
  cell viability: 77.1%
[2]
  cell viability: 59.4%

## UUUUAAUACAUGUAAACCA
[1]
  cell viability: 87.8%
[2]
  cell viability: 59.1%

## UUUUACAACAUGUAAACCA
[1]
  cell viability: 92.2%
[2]
  cell viability: 48.4%

## UUUUACCACAUGUAAACCA
[1]
  cell viability: 64.4%
[2]
  cell viability: 25.9%

## UUUUACGACAUGUAAACCA
[1]
  cell viability: 107%
[2]
  cell viability: 56.4%

## UUUUACUACAUGUAAACCA
[1]
  cell viability: 82.3%
[2]
  cell viability: 53.3%

## UUUUAGAACAUGUAAACCA
[1]
  cell viability: 109%
[2]
  cell viability: 56.6%

## UUUUAGCACAUGUAAACCA
[1]
  cell viability: 58%
[2]
  cell viability: 28.5%

## UUUUAGGACAUGUAAACCA
[1]
  cell viability: 93.2%
[2]
  cell viability: 33.6%

## UUUUAGUACAUGUAAACCA
[1]
  cell viability: 95%
[2]
  cell viability: 53.8%

## UUUUAUAACAUGUAAACCA
[1]
  cell viability: 101%
[2]
  cell viability: 55.9%

## UUUUAUCACAUGUAAACCA
[1]
  cell viability: 74.3%
[2]
  cell viability: 21.5%

## UUUUAUGACAUGUAAACCA
[1]
  cell viability: 101%
[2]
  cell viability: 45.8%

## UUUUAUUACAUGUAAACCA
[1]
  cell viability: 101%
[2]
  cell viability: 44.7%

## UUUUCAAACAUGUAAACCA
[1]
  cell viability: 101%
[2]
  cell viability: 42.7%

## UUUUCACACAUGUAAACCA
[1]
  cell viability: 96.9%
[2]
  cell viability: 51.1%

## UUUUCAGACAUGUAAACCA
[1]
  cell viability: 107%
[2]
  cell viability: 37%

## UUUUCAUACAUGUAAACCA
[1]
  cell viability: 98.5%
[2]
  cell viability: 54.9%

## UUUUCCAACAUGUAAACCA
[1]
  cell viability: 96.7%
[2]
  cell viability: 40.3%

## UUUUCCCACAUGUAAACCA
[1]
  cell viability: 48.5%
[2]
  cell viability: 49.9%

## UUUUCCGACAUGUAAACCA
[1]
  cell viability: 102%
[2]
  cell viability: 51.1%

## UUUUCCUACAUGUAAACCA
[1]
  cell viability: 52.9%
[2]
  cell viability: 13.4%

## UUUUCGAACAUGUAAACCA
[1]
  cell viability: 90.3%
[2]
  cell viability: 50.7%

## UUUUCGCACAUGUAAACCA
[1]
  cell viability: 81.2%
[2]
  cell viability: 20.2%

## UUUUCGGACAUGUAAACCA
[1]
  cell viability: 88.7%
[2]
  cell viability: 50.3%

## UUUUCGUACAUGUAAACCA
[1]
  cell viability: 85.1%
[2]
  cell viability: 52.2%

## UUUUCUAACAUGUAAACCA
[1]
  cell viability: 77.2%
[2]
  cell viability: 68.5%

## UUUUCUCACAUGUAAACCA
[1]
  cell viability: 65.4%
[2]
  cell viability: 19.6%

## UUUUCUGACAUGUAAACCA
[1]
  cell viability: 87%
[2]
  cell viability: 49.6%

## UUUUCUUACAUGUAAACCA
[1]
  cell viability: 97.8%
[2]
  cell viability: 62.3%

## UUUUGAAACAUGUAAACCA
[1]
  cell viability: 97.4%
[2]
  cell viability: 62.6%

## UUUUGACACAUGUAAACCA
[1]
  cell viability: 60.9%
[2]
  cell viability: 44.1%

## UUUUGAGACAUGUAAACCA
[1]
  cell viability: 100%
[2]
  cell viability: 66.1%

## UUUUGAUACAUGUAAACCA
[1]
  cell viability: 90.2%
[2]
  cell viability: 63.7%

## UUUUGCAACAUGUAAACCA
[1]
  cell viability: 91.5%
[2]
  cell viability: 37.7%

## UUUUGCCACAUGUAAACCA
[1]
  cell viability: 28.4%
[2]
  cell viability: 9.55%

## UUUUGCGACAUGUAAACCA
[1]
  cell viability: 89%
[2]
  cell viability: 46.6%

## UUUUGCUACAUGUAAACCA
[1]
  cell viability: 63%
[2]
  cell viability: 20.9%

## UUUUGGAACAUGUAAACCA
[1]
  cell viability: 84.4%
[2]
  cell viability: 63.9%

## UUUUGGCACAUGUAAACCA
[1]
  cell viability: 30.5%
[2]
  cell viability: 7.5%

## UUUUGGGACAUGUAAACCA
[1]
  cell viability: 67.6%
[2]
  cell viability: 44.4%

## UUUUGGUACAUGUAAACCA
[1]
  cell viability: 73.2%
[2]
  cell viability: 36.7%

## UUUUGUAACAUGUAAACCA
[1]
  cell viability: 106%
[2]
  cell viability: 43.6%

## UUUUGUCACAUGUAAACCA
[1]
  cell viability: 77.2%
[2]
  cell viability: 56.9%

## UUUUGUGACAUGUAAACCA
[1]
  cell viability: 100%
[2]
  cell viability: 65.2%

## UUUUGUUACAUGUAAACCA
[1]
  cell viability: 96.7%
[2]
  cell viability: 79.1%

## UUUUUAAACAUGUAAACCA
[1]
  cell viability: 106%
[2]
  cell viability: 64.9%

## UUUUUACACAUGUAAACCA
[1]
  cell viability: 98.2%
[2]
  cell viability: 80.3%

## UUUUUAGACAUGUAAACCA
[1]
  cell viability: 104%
[2]
  cell viability: 59.9%

## UUUUUAUACAUGUAAACCA
[1]
  cell viability: 104%
[2]
  cell viability: 71.2%

## UUUUUCAACAUGUAAACCA
[1]
  cell viability: 100%
[2]
  cell viability: 66.6%

## UUUUUCCACAUGUAAACCA
[1]
  cell viability: 47.2%
[2]
  cell viability: 10.2%

## UUUUUCGACAUGUAAACCA
[1]
  cell viability: 84.4%
[2]
  cell viability: 56.3%

## UUUUUCUACAUGUAAACCA
[1]
  cell viability: 88.4%
[2]
  cell viability: 37.8%

## UUUUUGAACAUGUAAACCA
[1]
  cell viability: 94.5%
[2]
  cell viability: 64.9%

## UUUUUGCACAUGUAAACCA
[1]
  cell viability: 76.6%
[2]
  cell viability: 24.4%

## UUUUUGGACAUGUAAACCA
[1]
  cell viability: 82.2%
[2]
  cell viability: 26.3%

## UUUUUGUACAUGUAAACCA
[1]
  cell viability: 95.2%
[2]
  cell viability: 39.5%

## UUUUUUAACAUGUAAACCA
[1]
  cell viability: 89.1%
[2]
  cell viability: 64.4%
